Measured values as given in PubChem BioAssay AID1346428 (National Center for Advancing Translational Sciences (NCATS), 2018).
About 1,200 (2.5%) of roughly 48,000 compounds were called active. Roughly 2% stayed inconclusive and do not appear here.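 The calls were made as follows: active = activation of at least 60% and not above a set upper limit (about 1 call in 100 departs from these limits); inconclusive = activation of 40% to 60%, or above that upper limit; inactive = activation under 40%.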 This is one part of the list.

These compounds were tested against Probable G-protein coupled receptor 32 (Homo sapiens) (UniProt O75388) (assay: qHTS for Agonists of Human Resolvin D1 Receptor DRV1). Conditions: CHO-K1 GPR32 beta-arrestin PathHunter luminescence, 90 min; at 76.9 µM; hits give high values; zero percent set by DMSO-only wells.
Chain of UniProt O75388 (O75388 whole entry, looked up): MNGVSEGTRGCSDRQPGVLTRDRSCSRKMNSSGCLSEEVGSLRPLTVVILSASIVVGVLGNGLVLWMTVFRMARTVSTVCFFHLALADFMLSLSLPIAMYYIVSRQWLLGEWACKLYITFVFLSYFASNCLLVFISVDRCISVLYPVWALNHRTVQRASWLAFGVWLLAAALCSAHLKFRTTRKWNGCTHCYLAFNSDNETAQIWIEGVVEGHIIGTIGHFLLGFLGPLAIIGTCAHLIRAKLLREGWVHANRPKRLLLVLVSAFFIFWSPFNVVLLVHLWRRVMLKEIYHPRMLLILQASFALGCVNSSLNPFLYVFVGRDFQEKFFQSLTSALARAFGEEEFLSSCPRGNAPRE
In short: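 Readings come from a cell-based beta-arrestin complementation format: CHO-K1 GPR32 stable cells (2,500/well) treated 90 min with compounds, then beta-Gal substrate added for 1 h before chemiluminescence imaging.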
Also: 0% is about no effect.

| Structure (SMILES) | activation |
| --- | --- |
| CC1=C(C(=O)Nc2ccccc2)C(c2cccs2)n2nc(SCc3ccccc3)nc2N1 (stereo not drawn) | inactive: 14.6% |
| O=C(Nc1c2c(nn1-c1ccc(Cl)cc1)CS(=O)(=O)C2)c1cccc(Cl)c1 | inactive: 8.89% |
| COc1ccc(OC)c(NC(=O)c2cc3cc4ccc(C)cc4nc3s2)c1 | inactive: -6.88% |
| Cc1ccc(CNC(=O)Cn2ccn(-c3cc(C)cc(C)c3)c(=O)c2=O)cc1 | inactive: -12.2% |
| COc1ccccc1NC(=O)Cn1nc(C)n2cccc2c1=O | inactive: -9.62% |
| O=C(c1ccc(F)cc1)n1nc(-c2ccc(Cl)cc2)nc1NCc1ccco1 | inactive: -2.5% |
| CCOc1ccc(-c2cc(NC(=O)Nc3ccccc3C(F)(F)F)c(C(=O)OC)s2)cc1 | inactive: -3.25% |
| COC(=O)c1ccc(Cn2c(SCC(=O)Nc3ccc(F)cc3)nc3ccccc32)cc1 | inactive: 15.5% |
| Cc1ccc(N2CC(C(=O)NCc3nnnn3-c3ccc(C)c(C)c3)CC2=O)cc1 (stereo not drawn) | inactive: -7.49% |
| CCOc1ccc(NC(=O)Cn2c(=O)n(Cc3ccc(C(=O)NCc4ccc5c(c4)OCO5)cc3)c(=O)c3ccccc32)cc1 | inactive: -0.21% |
| CCCCN(CC)Cc1ccc(CNS(=O)(=O)c2cc3c(cc2Cl)NC(=O)CO3)o1 | inactive: -9.81% |
| O=c1cc(N2CCOCC2)oc2c(-c3ccccc3)cccc12 | inactive: -13.8% |
| CCCCOc1ccc(C(=O)Nc2ccc3c(c2)CCCN3S(=O)(=O)c2ccc(C)cc2)cc1 | inactive: -1.37% |
| Cc1ccc(-c2nc3c4cnn(-c5cc(Cl)ccc5Cl)c4ncn3n2)cc1 | inactive: -7.58% |
| Cc1ccc(CCNC(=O)CCSCc2ccc(Cl)cc2)cc1 | inactive: -24.2% |
| COCCCn1c(=N)c(C(=O)NC2CCCC2)cc2c(=O)n3ccccc3nc21 | inactive: -12.1% |
| CCN(CC)CCNC(=O)c1cc(Br)c(N)cc1OC | inactive: -1.58% |
| Cc1ccc(S(=O)(=O)c2nnn3c2nc(Nc2ccc(C(C)C)cc2)c2sccc23)cc1C | inactive: -8.3% |
| CCOc1ccc(-n2c(SCc3nc(-c4ccccc4C)no3)nnc2-c2ccccc2)cc1 | inactive: 0.367% |
| CC(C)Cc1nn2c(=O)cc(COC(=O)c3ccccc3NC(=O)c3ccccc3)nc2s1 | inactive: -7.54% |
| CC(=O)Nc1ccc(NC(=O)CN2C(=O)CN(C)C(=O)c3ccccc32)cc1 | inactive: -12.7% |

| Structure (SMILES) | activation |
| --- | --- |
| CCCn1c(=O)c2sccc2n2c(CCCC(=O)NCCOC)nnc12 | inactive: -8.1% |
| CN(C)c1ccc(CNc2nc(-c3ccco3)nn2C(=O)c2cccc([N+](=O)[O-])c2)cc1 | inactive: -31.8% |
| CCc1ccc(-n2c(C)nc3cc(C(=O)NCCc4ccccc4)ccc32)cc1 | inactive: -18.7% |
| CN(C)c1ccc(CN(CC2CCCO2)C(=O)COc2ccc(Cl)cc2)cc1 (stereo not drawn) | inactive: -28.2% |
| Cc1cc(O)c(C(c2cccc(Cl)c2)N2CCN(c3ccccc3)CC2)c(=O)n1Cc1ccco1 (stereo not drawn) | inactive: -17.3% |
| CC(=O)N1CCCc2cc(S(=O)(=O)N3CCCC(C(=O)NCc4ccc(Cl)cc4)C3)ccc21 (stereo not drawn) | inactive: 8.18% |
| COc1cccc(CN2C(=O)c3ccccc3C2C(=O)NCCc2ccc(OC)c(OC)c2)c1 (stereo not drawn) | inactive: -10.1% |
| COc1ccccc1NC(=O)CSc1ncc2c(n1)-c1cc(Cl)ccc1N(C)S2(=O)=O | inactive: -13.5% |
| CC(C)CC(=O)Nc1ccc(C(=O)OCc2cc(=O)n3nc(C4CCCCC4)sc3n2)cc1 | inactive: -11.6% |
| Cc1nc(N2CCCC2)ncc1C(=O)Nc1ccccc1 | inactive: 33% |
| O=C(Nc1ccc(S(=O)(=O)N2CCC(c3nc4ccccc4s3)CC2)cc1)c1ccccc1F | inactive: -0.171% |
| Cc1cccc(C(=O)Nc2ccc(N3CCC(CCN4CCOCC4)CC3)c(C(=O)O)c2)c1 | inactive: -8.55% |
| CCN(C(=O)NCc1noc2ccccc12)c1cc(C)ccc1C | inactive: -19.8% |
| CCOc1ccc(CNC(=O)CCn2cccn2)cc1OC | inactive: 2.24% |
| Cc1ccc2nc(/C(C#N)=C/c3ccc(-c4cccc(Cl)c4)o3)[nH]c2c1 | inactive: 4.35% |
| CCCCCOc1ccc(C(=O)N(Cc2ccccc2)C2CCS(=O)(=O)C2)cc1 (stereo not drawn) | inactive: -28.7% |
| CCOc1ccc(CCNC(=O)c2cc3c(-c4cccc(OC)c4)nn(C)c3s2)cc1OCC | inactive: -7.13% |
| CCOc1ccc(NC(=O)CN2C(=O)C(c3ccccc3)=NC23CCCCCC3)cc1 | inactive: -30.2% |
| Cc1cc(NC(=O)CN(C)S(=O)(=O)c2ccc3c(c2)CCC(=O)N3)ccc1Br | inactive: 44.6% |
| Cc1cccc(Cn2c(C)c(C)c3cc(C(=O)NCc4ccc(C)o4)ccc32)c1 | inactive: -37.8% |
| CCN(CCCNC(=O)c1nn(-c2ccc(OC)cc2)c(=O)c2c1c1ccccc1n2C)c1cccc(C)c1 | inactive: -33% |

| Structure (SMILES) | activation |
| --- | --- |
| COc1ccc(-c2cccc(NS(=O)(=O)c3cc(C)c(Cl)cc3C)c2)nn1 | inactive: 35.7% |
| Cc1cccc(CS(=O)(=O)Cc2ccc(C(=O)NCc3ccc(Cl)cc3)o2)c1 | inactive: -3.17% |
| CCCCC12CN3CC(C)(CN(C1)C3c1c(C)[nH]c(=O)[nH]c1=O)C2=O (stereo not drawn) | inactive: 0.795% |
| Cc1cccc(C(CC(=O)NCC2(c3ccccc3)CCCC2)c2ccccc2)c1O (stereo not drawn) | inactive: 26.3% |
| CCC(C(=O)NCCc1ccc(Cl)cc1)n1nc(C)c2c(C)n(-c3ccccc3)nc2c1=O (stereo not drawn) | inactive: -3.47% |
| Cc1nc2nc(SCC(=O)NC(C)c3ccccc3)nn2c(C)c1Cc1c(F)cccc1Cl (stereo not drawn) | inactive: -12.6% |
| COc1cccc(CSc2nc3n(n2)C(c2ccccc2C)C(C(=O)Nc2ccccc2OC)=C(C)N3)c1 (stereo not drawn) | inactive: -16.3% |
| O=C(CSc1oc(-c2ccco2)nc1S(=O)(=O)c1ccc(Cl)cc1)c1ccccc1 | inactive: -15.8% |
| CCOc1ccc(CN2C(=O)c3ccccc3Sc3ccc(C(=O)NCc4ccc(C)cc4)cc32)cc1 | inactive: -19.8% |
| COC(=O)c1ccc(NC(=O)CC2C(=O)N(c3cccc(OC)c3)C(=O)N2Cc2cccc(OC)c2)cc1 (stereo not drawn) | inactive: -22.9% |
| Cc1ccc(N2CCN(C(=O)c3nn(C)c4c3CSc3ccccc3-4)CC2C)cc1 (stereo not drawn) | inactive: -17.9% |
| Cc1ccc(CNC(=O)CN(c2cc(C)cc(C)c2)S(=O)(=O)c2c(C)[nH]c(=O)[nH]c2=O)cc1 | inactive: -8.09% |
| O=C(NC1CCCC1)c1ccc2c(c1)N(Cc1ccc(F)cc1)C(=O)c1ccccc1S2 | inactive: -20% |
| CCc1ccc(C2c3c(n[nH]c3C)C(=O)N2c2ccc(C)cc2)cc1 (stereo not drawn) | inactive: 3.21% |
| CCc1cccc(NC(=O)CCS(=O)(=O)c2ccc(C)cc2)c1 | inactive: -3.24% |
| CCOc1ccc(-c2ccc(CO)o2)cc1N | inactive: -19.3% |
| CC(C)CCNC(=O)CSc1nc2ccsc2c(=O)n1Cc1ccccc1Cl | inactive: -22.5% |
| COc1ccc(NC(=O)C(Cc2ccccc2)n2cccc2)c(OC)c1 (stereo not drawn) | inactive: -12.1% |
| O=S(=O)(Nc1nc2n(n1)C(c1ccccc1)C=C(c1ccc(Cl)cc1)N2)c1ccccc1 (stereo not drawn) | active: 72.2% |
| COc1ccc(-c2noc(-c3ccccc3NC(=O)c3cc(OC)c(OC)c(OC)c3)n2)cc1 | inactive: -2.93% |
| COc1ccccc1N1CCN(C(=O)CSc2nc(-c3ccc(C(C)C)cc3)no2)CC1 | inactive: -6.64% |

| Structure (SMILES) | activation |
| --- | --- |
| Cc1cccc(NC(=O)c2c(Br)sc3c2CCCC3)c1 | inactive: -8.5% |
| O=C(NCc1ccc(Cl)cc1)C1CCCN(c2ncnc3onc(-c4ccc(F)cc4)c23)C1 (stereo not drawn) | inactive: -0.93% |
| COc1ccc(Nc2nnc(-c3ccc(C)c(S(=O)(=O)N4CCOCC4)c3)c3ccccc23)cc1 | inactive: 11.5% |
| O=C(COc1ccccc1F)Nc1nnc(S(=O)(=O)N2CCCCCC2)s1 | inactive: 8.14% |
| CCOc1cc(C2c3c(oc4ccc(F)cc4c3=O)C(=O)N2Cc2ccc(C)cc2)ccc1O (stereo not drawn) | inactive: -7.7% |
| CCCCNC(=O)CSc1nc2n[nH]c(C)c2c(=N)n1-c1ccccc1CC | inactive: -16.1% |
| COc1ccc(C2CC(=O)c3c([nH]c(C(=O)OCc4ccccc4)c3C)C2)cc1OC (stereo not drawn) | inactive: 0.708% |
| OC(CCN1CCCCC1)(c1ccccc1)c1ccccc1 | inactive: -3.87% |
| CCC1CN(C(=O)Nc2cccc3c2CCCC3)c2cc(C)ccc2O1 (stereo not drawn) | inactive: -35.6% |
| CCOC(=O)c1c(C)oc2nc(C)nc(NCCCN3CCN(c4cccc(C)c4)C(C)C3)c12 (stereo not drawn) | inactive: -30.5% |
| Cc1ccccc1Cc1c(C)nc2nc(SCC(=O)NC(C)c3ccccc3)nn2c1C (stereo not drawn) | inactive: -30.5% |
| O=C(NCCCN1CCN(c2ccccc2)CC1)c1cc2c(s1)-c1ccccc1OC2 | inactive: 0.0833% |
| CCCCNC(=O)C1CCN(Cc2nc(-c3ccc(OC)c(OC)c3)oc2C)CC1 | inactive: -11.3% |
| CCC1CN(C(=O)NCc2ccc(F)cc2)c2ccccc2O1 (stereo not drawn) | inactive: -25.3% |
| CC(C)(Cc1c[nH]c2ccccc12)NCC(O)COc1ccccc1C#N (stereo not drawn) | inactive: 38.6% |
| Cc1ccc(NC(=O)c2ccco2)c(OCc2cc(=O)n3cc(C)sc3n2)c1 | inactive: -7.7% |
| COc1ccc(-n2c(=O)c3c4c(sc3n(Cc3cc(=O)n5c(C)cccc5n3)c2=O)CCC4)c(OC)c1 | inactive: -6.7% |
| COc1ccc(C2CC(=O)N3CN(C4CCCCC4)CSC3=C2C#N)cc1 (stereo not drawn) | inactive: 48% |
| CCc1ccc(CNC(=O)CSCc2cnn(-c3ccccc3)c2-n2cccc2)cc1 | inactive: -32.4% |
| Cc1ccc(Cn2c(=O)c3ccccc3n3c(-c4ccccc4)nnc23)cc1 | inactive: 19.9% |
